# Measured values: the supplement of paper PMC9135407
# Values joined by “and” are separate entries in the source; they are usually repeats but may differ in a detail not shown here. Equal values may be shown once. Where a name gives a salt, the structure may show the parent alone. The whole screen tested about 5,800 compounds, of which about 620 (11%) showed activity.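 Rule for the calls: active = score above a cut-off or among the top three wells of a plate; in these data no inactive exceeds 0.85.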 This is a selection; strong and weak results do not stand in their true shares.
# Test system: primary human hepatic stellate cells (donor 1)
# Experiment: scaled lipid accumulation score (0 = DMSO-like, 1 = nortriptyline-like); higher = stronger HSC inactivation (lipid re-accumulation), active = hit call of the paper
# Settings: 48 h
# [1] = library stock concentration: 3.33 mM
# [2] = library stock concentration: 10 mM
# [3] = library stock concentration: 1 mM
# [4] = library stock concentration: 80 uM
# [5] = library stock concentration: 400 uM
# [6] = library stock concentration: 2 mM
smiles,measurement,setting,value
Nc1nc2c(ncn2[C@@H]2O[C@H](CO)[C@@H](O)[C@H]2O)c(=O)[nH]1 [Guanosine],scaled lipid accumulation score,[1],inactive: 0.023
same,scaled lipid accumulation score,[2],inactive: 0.11
Clc1cnccn1 [2-Chloropyrazine],scaled lipid accumulation score,,inactive: ≤ 0
"CC(C)OC(=O)[C@H](C)N[P@](=O)(OC[C@H]1O[C@@H](n2ccc(=O)[nH]c2=O)[C@](C)(F)[C@@H]1O)Oc1ccccc1 [Sofosbuvir (PSI-7977, GS-7977)]",scaled lipid accumulation score,[1],inactive: ≤ 0
same,scaled lipid accumulation score,[2],inactive: ≤ 0
O=C(O)/C=C/CCCCCCCCC(=O)O [Traumatic Acid],scaled lipid accumulation score,[3],inactive: ≤ 0
COc1cccc2c1C(=O)c1c(O)c3c(c(O)c1C2=O)C[C@@](O)(C(=O)CO)C[C@@H]3O[C@H]1C[C@H](N)[C@H](O)[C@H](C)O1,scaled lipid accumulation score,[2],inactive: ≤ 0
COc1cccc2c1C(=O)c1c(O)c3c(c(O)c1C2=O)C[C@@](O)(C(=O)CO)C[C@@H]3O[C@H]1C[C@H](N)[C@H](O)[C@H](C)O1 [Doxorubicin hydrochloride],scaled lipid accumulation score,,inactive: ≤ 0
same,scaled lipid accumulation score,[2],inactive: ≤ -0.001
COc1cccc2c1C(=O)c1c(O)c3c(c(O)c1C2=O)C[C@@](O)(C(=O)CO)C[C@@H]3O[C@H]1C[C@H](N)[C@H](O)[C@H](C)O1 [Doxorubicin (Adriamycin)],scaled lipid accumulation score,[1],inactive: 0.229
same,scaled lipid accumulation score,[2],inactive: ≤ 0
COc1cccc2c1C(=O)c1c(O)c3c(c(O)c1C2=O)C[C@@](O)(C(=O)CO)C[C@@H]3O[C@H]1C[C@H](N)[C@H](O)[C@H](C)O1 [Doxorubicin],scaled lipid accumulation score,library stock concentration: 8.6 mM,inactive: 0.214
CC(C)N1Cc2cc(S(C)(=O)=O)ccc2N(CCN2CC=C(c3c[nH]c4cc(F)ccc34)CC2)S1(=O)=O,scaled lipid accumulation score,[2],inactive: 0.137
CCC(=O)O[C@@H](O[P@](=O)(CCCCc1ccccc1)CC(=O)N1C[C@H](C2CCCCC2)C[C@H]1C(=O)O)C(C)C [Fosinopril],scaled lipid accumulation score,library stock concentration: 3.5 mM,inactive: ≤ -0.006
CCCCC/C=C\C/C=C\CC/C=C\CCCC(=O)OC [Pinolenic Acid methyl ester],scaled lipid accumulation score,[3],inactive: ≤ 0
CC1(C)S[C@@H]2[C@H](NC(=O)[C@H](N)c3ccc(O)cc3)C(=O)N2[C@H]1C(=O)O,scaled lipid accumulation score,[2],inactive: 0.145
CC1(C)S[C@@H]2[C@H](NC(=O)[C@H](N)c3ccc(O)cc3)C(=O)N2[C@H]1C(=O)O [Amoxicillin Sodium],scaled lipid accumulation score,[1],inactive: ≤ 0
same,scaled lipid accumulation score,[2],inactive: ≤ 0
CC1(C)S[C@@H]2[C@H](NC(=O)[C@H](N)c3ccc(O)cc3)C(=O)N2[C@H]1C(=O)O [Amoxicillin],scaled lipid accumulation score,,inactive: 0.056
same,scaled lipid accumulation score,[1],inactive: ≤ 0
same,scaled lipid accumulation score,[2],inactive: 0.044 and inactive: ≤ 0
Cc1cc(C(=O)NOCCO)c(Nc2ccc(I)cc2F)n(C)c1=O,scaled lipid accumulation score,[4],inactive: ≤ -0.009
same,scaled lipid accumulation score,[5],inactive: ≤ -0.009
same,scaled lipid accumulation score,[6],inactive: 0.044
same,scaled lipid accumulation score,[1],inactive: 0.002
same,scaled lipid accumulation score,[2],inactive: ≤ 0 and inactive: ≤ -0.009
Cn1cnc2c(NCc3ccccc3)nc(NCCO)nc21 [Olomoucine],scaled lipid accumulation score,[3],inactive: 0.044
same,scaled lipid accumulation score,[2],inactive: ≤ -0.055 and inactive: 0.016
same,scaled lipid accumulation score,library stock concentration: 16.8 mM,inactive: 0.139
N=C(N)NC(=N)Nc1ccccc1 [1-Phenylbiguanide hydrochloride],scaled lipid accumulation score,[2],inactive: ≤ 0
Oc1cccc(-c2nc(N3CCOCC3)c3sccc3n2)c1 [PI3-Kinase .alpha. Inhibitor 2],scaled lipid accumulation score,[3],inactive: ≤ 0
Nc1nc(Cl)nc2c1ncn2[C@H]1C[C@H](O)[C@@H](CO)O1,scaled lipid accumulation score,[2],inactive: ≤ 0
Nc1nc(Cl)nc2c1ncn2[C@H]1C[C@H](O)[C@@H](CO)O1 [Cladribine],scaled lipid accumulation score,[1],inactive: ≤ 0
same,scaled lipid accumulation score,[2],inactive: ≤ 0
CN[C@@H]1[C@H](O[C@H]2[C@H](O[C@H]3[C@H](O)[C@@H](O)[C@H](N=C(N)N)[C@@H](O)[C@@H]3N=C(N)N)O[C@@H](C)[C@]2(O)C=O)O[C@@H](CO)[C@H](O)[C@H]1O [Streptomycin sulfate],scaled lipid accumulation score,,inactive: ≤ 0
same,scaled lipid accumulation score,library stock concentration: 2.9 mM,inactive: ≤ 0
same,scaled lipid accumulation score,[2],inactive: 0.014
O=C(C=Cc1ccccc1)NC(NC(=S)Nc1ccc(Cl)cc1)C(Cl)(Cl)Cl (centres undefined),scaled lipid accumulation score,[4],inactive: ≤ -0.001
same,scaled lipid accumulation score,[5],inactive: ≤ -0.001
same,scaled lipid accumulation score,[6],inactive: ≤ -0.001
same,scaled lipid accumulation score,[1],inactive: 0.163
same,scaled lipid accumulation score,[2],inactive: 0.17 and inactive: 0.437 and inactive: 0.246
Cc1cccc(C(=O)O)c1O,scaled lipid accumulation score,[2],inactive: ≤ 0
Cc1cc(C=C2C(=O)C=CC2=O)cc(C)c1O,scaled lipid accumulation score,[2],active: 0.924
O=c1cc(-c2cccc3c2Sc2ccccc2S3)oc(N2CCOCC2)c1,scaled lipid accumulation score,[4],inactive: ≤ 0
same,scaled lipid accumulation score,[5],inactive: ≤ 0 and inactive: ≤ -0.005
same,scaled lipid accumulation score,[6],inactive: ≤ 0 and inactive: ≤ -0.005
same,scaled lipid accumulation score,[1],inactive: ≤ 0
same,scaled lipid accumulation score,[2],inactive: ≤ 0 and inactive: ≤ -0.001 and inactive: ≤ -0.005
